This note sets out measurements from PubChem BioAssay AID1963576 (National Center for Advancing Translational Sciences (NCATS), 2024).

Screen size: about 46,000 compounds; about 60 (0.1%) were called active. Not shown: some 3% with an inconclusive outcome. Calls follow the shape of the dose curve; as a rule, active = well fitted inhibition curve with a large enough effect; inconclusive = small, poorly fitted or top-dose-only effect; inactive = no such curve, though single readings can be large or run the other way. This is one part of the list.

The experiment in a line: Primary qHTS assay for Inhibitors of ovarian cancer metastasis using an organotypic tumor microenvironment (TME) model. Also: nearly all actives have a fitted effect of over 65% in size.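 As to activity change, negative = inhibition: plate controls were DMSO wells for no effect and tomatine positive control wells for full effect.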 Particulars: SKOV3ip1-GFP adhesion/invasion on 3D omental model, fluorescence; series mostly up to 45.8 µM; activity change, negative = inhibition: at the top concentration. Put shortly: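 qHTS, 4-pt dose (0.36-46 umol/L); SKOV3ip1-GFP, 1,200 cells/well, no FBS; primary omental fibroblast/mesothelial co-culture 48 h pre-grown; 2 h RT + 16 h 37 C; PBS wash, 4% PFA; GFP count 488/509 nm.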
A general note: qHTS replaces the single test concentration by a dilution series.
With `CCOc1ccc(CNC(=O)CCCn2nc(C)c3c(C)n(-c4ccc(C)cc4)nc3c2=O)cc1`, the result was inactive.

For `CC1CCc2onc(C(=O)N3CCN(c4ccc(Cl)cc4)CC3)c2C1` (configuration not stated), the “activity change, negative = inhibition” value is inactive: -3.88%.

Turning to `Cc1ccc(Cn2ccn(Cc3ccc(C)cc3)c(=O)c2=O)cc1`, the “activity change, negative = inhibition” value is inactive: 17.7%.

In the case of `CCN1CCN(C(=O)Cn2c(-c3cccs3)cc3cc(Cl)ccc32)CC1`, the “activity change, negative = inhibition” value is inactive: -17.5%.

For the compound `Cc1ccc(C)c(N2CCN(C(=O)CCc3c(C)nc4c(c3C)c(=O)n(C)c(=O)n4C)CC2)c1`, the “activity change, negative = inhibition” value is inactive: -15.3%.

Regarding `COc1ccc(CNC(=O)Cc2c(C)c3c(O)cc(C)cc3oc2=O)cc1`, the “activity change, negative = inhibition” value is inactive: 6.51%.

Consider `CCOC(=O)c1cc2c(=O)n3ccccc3nc2n(CC(C)C)c1=NC(=O)C(C)(C)Oc1ccc(Cl)cc1`, for which the “activity change, negative = inhibition” value is inactive: 1.25%.

Consider `Cc1ccc(C(=O)N2CC(=O)Nc3ccc(Br)cc3C2c2ccc(F)cc2)cc1C` (configuration not stated), for which the “activity change, negative = inhibition” value was inactive: -11.6%.

Consider `CCc1ccc(NC(=O)Cn2cnc3nc4c(cc3c2=O)CCCC4)cc1`, for which the “activity change, negative = inhibition” value is inactive: 0.509%.

Take `COc1ccc(C(CNC(=O)c2oc3ccccc3c2C)N2CCCCC2)cc1` (configuration not stated): the “activity change, negative = inhibition” value is inactive: 0.872%.

Turning to `CCc1ccc(-n2c3nc(=O)[nH]c(=O)c-3cc3c(C)nn(-c4ccccc4)c32)cc1`, the result was inactive.

Turning to `CC(C)CCNC(=O)c1c[nH]c2ccc(S(=O)(=O)Nc3cccc(C(F)(F)F)c3)cc2c1=O`, the outcome was inactive.

Take `COc1ccccc1CNC(=O)C1CCN(c2ncnc3c2nc2n3CCCCC2)CC1`: the “activity change, negative = inhibition” value was inactive: 0.438%.

Regarding `O=C1CCCc2cc(S(=O)(=O)N3CCCC(C(=O)NCc4ccccc4Cl)C3)ccc2N1` (configuration not stated), the “activity change, negative = inhibition” value is inactive: 22.6%.

`CCc1nnc(NC(=O)CSc2nccn2Cc2ccccc2)s1`: the call was inactive.

Consider `Cc1noc(-c2ccc(N3CCCCC3C)c([N+](=O)[O-])c2)n1` (configuration not stated), for which the call was inactive.

`COc1cc(Cl)c(C)cc1NC(=O)c1c(C)oc2nc(C)nc(N3CCCC3)c12`: the “activity change, negative = inhibition” value was inactive: -25.5%.

Take `Cc1cc(C)cc(NS(=O)(=O)c2ccc3[nH]cc(C(=O)N4CCCCC4)c(=O)c3c2)c1`: the “activity change, negative = inhibition” value was inactive: 0.906%.

Take `CCC(=O)N1CCc2cc(CNS(=O)(=O)c3ccccc3F)ccc21`: the “activity change, negative = inhibition” value is inactive: -8.52%.

Turning to `Cc1ccc(-n2c(=O)c3oc4ccccc4c3n(Cc3ccccc3)c2=O)cc1C`, the “activity change, negative = inhibition” value was inactive: -3.02%.

`Cc1ccc(-c2noc(-c3nnn(CC(=O)Nc4ccc(C)cc4Cl)c3N)n2)cc1`: the “activity change, negative = inhibition” value was inactive: 6.17%.

For `Cc1ccc(-n2nc(C(=O)NC(C)C)c(=O)n(C)c2=O)cc1`, the “activity change, negative = inhibition” value was inactive: 7.42%.

For `Cc1cccc(OCC(=O)Nc2nnc(S(=O)(=O)N3CCCCCC3)s2)c1`, the “activity change, negative = inhibition” value was inactive: 7.01%.

In the case of `CCOc1cc2c(cc1OCC)C(CC(=O)OC)N(C(=O)Nc1cc(C)cc(C)c1)CC2` (configuration not stated), the “activity change, negative = inhibition” value was inactive: -2.74%.

Regarding `Cc1ccc(NC(=O)CCc2nc(-c3ccccc3F)no2)c(C)c1`, the “activity change, negative = inhibition” value was inactive: 74.6%.

As to `COc1cc(C(=O)Nc2sc3c(c2C#N)CCCC3)c(Br)c(OC)c1OC`, the “activity change, negative = inhibition” value was inactive: -9.21%.

With `CCOc1ccccc1CNC(=O)c1ccc2c(c1)N(CC)CCS2`, the “activity change, negative = inhibition” value was inactive: -9.91%.

As to `COc1cccc(CNC(=O)C(Cc2ccccc2)NS(=O)(=O)c2ccc3c(c2)CCN3C(C)=O)c1` (configuration not stated), the “activity change, negative = inhibition” value was inactive: 1.94%.

As for `CCOc1ccc(NS(=O)(=O)c2ccc3[nH]cc(C(=O)NCc4ccco4)c(=O)c3c2)cc1`, the “activity change, negative = inhibition” value is inactive: 4.85%.

For the compound `O=S(=O)(NCCc1ccccc1)c1ccc(N2CCCCS2(=O)=O)cc1`, the “activity change, negative = inhibition” value is inactive: 3.41%.

As to `O=c1cc(CN2CCN(S(=O)(=O)c3ccc(Cl)cc3)CC2)nc2sc(-c3ccccc3F)nn12`, the “activity change, negative = inhibition” value is inactive: 0.523%.

Take `COc1cccc(OC(=O)CSc2nnc(-c3ccccc3OC)o2)c1`: the compound was classed as inactive.

As to `COc1ccc(Cl)cc1NC(=O)c1cc2nc(-c3ccc4c(c3)OCO4)cc(C(F)(F)F)n2n1`, the “activity change, negative = inhibition” value was inactive: 3.02%.

Take `Cc1ccc(N2C(=O)CS(=O)(=O)C23C(=O)N(Cc2cccc(F)c2)c2ccccc23)cc1Cl` (configuration not stated): the compound was called inactive.

As for `O=C(CSc1nc(-c2ccc(Cl)cc2)nc2c1Cc1ccccc1O2)N1CCCCC1`, the “activity change, negative = inhibition” value is inactive: 4.44%.

Turning to `COc1ccc(C(=O)O)cc1Nc1nc2ccc(C)cc2n2cnnc12`, the “activity change, negative = inhibition” value was inactive: -9.03%.

Turning to `Cc1ccc(C)c(N2CCN(c3nc4ccccc4c4nc(CCn5nc(C)cc5C)nn34)CC2)c1`, the “activity change, negative = inhibition” value was inactive: 7.23%.

As for `Cc1cccc(NC(=O)c2sc3nc4n(c(=O)c3c2C)N=C(c2ccc(F)cc2)CS4)c1C`, the result was inactive.

In the case of `CCCCc1ccc(NC(=O)c2cc3c(=O)n4ccccc4nc3n2C)cc1`, the “activity change, negative = inhibition” value is inactive: -2.42%.

Take `COC(=O)Cn1c(=O)c2c(nc3n2CCN3c2cccc(C)c2)n(C)c1=O`: the “activity change, negative = inhibition” value is inactive: -8.94%.

As for `CCN(CC)S(=O)(=O)c1ccc(NC(=O)[C@H](CSCc2ccccc2)N2Cc3ccccc3C2=O)cc1`, the “activity change, negative = inhibition” value was inactive: 3.53%.

With `COc1ccc2nc3sc(C(=O)Nc4ccccc4F)cc3cc2c1`, the “activity change, negative = inhibition” value was inactive: -6.85%.

Regarding `COc1ccc(NC(=O)CCCc2nc(-c3ccco3)no2)c(OC)c1`, the “activity change, negative = inhibition” value was inactive: -10.5%.

Consider `CCOC(=O)Cn1c(=O)oc2cc(S(=O)(=O)N3CCN(c4ccc(Cl)cc4)CC3)ccc21`, for which the “activity change, negative = inhibition” value was inactive: 4.23%.

Take `CCc1ccc(S(=O)(=O)c2cn(C)c3cc(N4CCCCC4C)c(F)cc3c2=O)cc1` (configuration not stated): the “activity change, negative = inhibition” value was inactive: -8.39%.

`Cc1ccc(S(=O)(=O)NCC(c2ccc(N(C)C)cc2)N2CCCC2)cc1` (configuration not stated): the “activity change, negative = inhibition” value is inactive: -5.81%.

On to `COc1cc(OC)cc(-c2nc3n(n2)C(c2ccccc2F)C(C(=O)Nc2cccnc2)=C(C)N3)c1` (configuration not stated), for which the “activity change, negative = inhibition” value is inactive: 0.369%.
